Results reported in patent publication US20220049236A1 (YEDA RESEARCH AND DEVELOPMENT, published 2022).

Assays:
[1] = molecular target: T1, Heat shock protein HSP 90-beta (human, UniProt P08238); test: IP from HDF supernatant, LFQ mass spectrometry; ratio against Fc control
T1 construct: also called HSP90AB1

[2] = molecular target: T2, Heat shock 70 kDa protein 1A/B (human, UniProt P0DMV9); test: as above
T2 construct: also called Heat shock 70 kDa protein 1B; HSPA1B

[3] = molecular target: T3, 60 kDa heat shock protein, mitochondrial (human, UniProt P10809 27-573, limits assumed); test: as above
T3 construct: also called HSPD1; HSP60

[4] = molecular target: T4, Heat shock cognate 71 kDa protein (human, UniProt P11142); test: as above
T4 construct: also called HSPA8

[5] = molecular target: T5, Heat shock protein HSP 90-alpha (human, UniProt P07900 2-732); test: as above
T5 construct: also called HSP90AA1

Hornerin [6] = molecular target: T6, Hornerin (human, UniProt Q86YZ3 1-2850, limits assumed); test: as above
T6 construct: also called HRNR

Filaggrin-2 [7] = molecular target: T7, Filaggrin-2 (human, UniProt Q5D862 1-2391, limits assumed); test: as above
T7 construct: also called FLG2

[8] = molecular target: T1, Heat shock protein HSP 90-beta; test: IP from HDF supernatant, LFQ mass spectrometry; ratio against the glycosylation mutant
Description: (§1) Fc-LPD was coated on magnetic protein G beads (GE) according to manufacturer's instructions. The coated beads were incubated with concentrated supernatant from 10 cm² dish culture of HDF cells overnight on 4° C. Pellet beads were obtained by centrifuge (˜500 g for 5 min 4° C.) and the beads were washed with PBS of volume at least 5 times the initial beads volume. Then the beads pellet was placed in a collection column, which was inserted in an eppendorf tube containing 10 ul of 1M Tris-HCl pH 8. 90 ul of elution buffer (Thermo-Scientific) was added to the beads and after 5 min of incubation elution was performed by centrifuge. The last step was repeated four times.
(§2) Mass-spectrometry for identification gel bands from I.P of Fc-LPD The samples were eluted with 5% SDS and subjected to tryptic digestion using an S-trap. The resulting peptides were analyzed using nanoflow liquid chromatography (nanoAcquity) coupled to high resolution, high mass accuracy mass spectrometry (Q Exactive HFX). Each sample was processed with MaxQuant v1.6.0.16. The data was searched with the Andromeda search engine against the human proteome database appended with common lab protein contaminants and the following modifications: Carbamidomethylation of C as a fixed modification and oxidation of M and protein N-term acetylation as variable ones. The LFQ intensities (label free quantification) were calculated and used for further calculations using Perseus v1.6.07. Decoy hits were filtered out, as well as proteins that were identified on the basis of a modified peptide only. The LFQ intensities were log transformed and only proteins that had at least 2 valid values in at least one experimental group were kept. GO annotations were added.
(§3) The Fc-LPD has three glycosylation sites, in order to investigate the importance of glycosylation a new construct Fc-LPD-N346, 362, 409Q was created. These two proteins including the Fc (as control) were used to clarify the interactions of LPD with ECM proteins in the supernatant of HDF cells, as in Example 3. For this purpose, HDF cells were cultured in 60 cm² dishes for 3 days in 10 ml serum-free and phenol red-free medium. The medium was collected and concentrated using 10 kDa cutoff vivaspin filters and incubated with Fc, Fc-LPD and Fc-LPD-N346, 362, 409Q, which were pre-incubated in magnetic protein G beads.

[9] = molecular target: T2, Heat shock 70 kDa protein 1A/B; test: as above
Description: as §1, §2, §3

[10] = molecular target: T4, Heat shock cognate 71 kDa protein; test: as above
Description: as §1, §2, §3

[11] = molecular target: T5, Heat shock protein HSP 90-alpha; test: as above
Description: as §1, §2, §3

Hornerin [12] = molecular target: T6, Hornerin; test: as above
Description: as §1, §2, §3

Filaggrin-2 [13] = molecular target: T7, Filaggrin-2; test: as above
Description: as §1, §2, §3

[14] = molecular target: T8, LOX catalytic domain (catalytic domain of human LOX, 169-417) (human, UniProt P28300 170-417); test: microscale thermophoresis, labelled LOX with rising concentration of Fc-LPD (Fnorm rises from about 850 to about 860 between 10^0 and 10^4 nM)
T8 construct: Expressed from pET28 in E. coli BL21 SHuffle, purified on HisTrap and labelled through its His tag for MST
T8 sequence: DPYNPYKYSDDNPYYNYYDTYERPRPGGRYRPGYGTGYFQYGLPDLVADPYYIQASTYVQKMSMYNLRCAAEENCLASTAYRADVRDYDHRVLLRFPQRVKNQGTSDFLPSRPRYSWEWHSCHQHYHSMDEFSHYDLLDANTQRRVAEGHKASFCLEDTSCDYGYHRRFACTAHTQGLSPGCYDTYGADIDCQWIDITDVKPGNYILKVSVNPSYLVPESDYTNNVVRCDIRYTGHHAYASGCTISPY

T2 sequence (P0DMV9 2-641 limits assumed): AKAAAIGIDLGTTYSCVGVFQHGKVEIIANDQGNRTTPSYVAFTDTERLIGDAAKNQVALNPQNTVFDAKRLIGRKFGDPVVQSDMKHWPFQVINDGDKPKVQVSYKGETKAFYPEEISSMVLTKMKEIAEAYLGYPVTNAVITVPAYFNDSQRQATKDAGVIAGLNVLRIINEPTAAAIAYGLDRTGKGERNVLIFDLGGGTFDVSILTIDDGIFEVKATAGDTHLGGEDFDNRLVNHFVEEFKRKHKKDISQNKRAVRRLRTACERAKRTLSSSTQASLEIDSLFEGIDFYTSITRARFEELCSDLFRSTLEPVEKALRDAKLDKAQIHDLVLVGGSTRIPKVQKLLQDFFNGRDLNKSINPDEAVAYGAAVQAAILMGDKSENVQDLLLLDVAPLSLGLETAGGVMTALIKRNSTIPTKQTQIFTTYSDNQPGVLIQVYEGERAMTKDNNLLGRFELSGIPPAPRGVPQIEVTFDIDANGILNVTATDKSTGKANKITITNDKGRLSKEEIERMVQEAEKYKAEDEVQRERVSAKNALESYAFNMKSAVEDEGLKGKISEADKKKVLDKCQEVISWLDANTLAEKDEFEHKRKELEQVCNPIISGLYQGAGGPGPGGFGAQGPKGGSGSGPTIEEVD
T6 sequence (Q86YZ3 whole entry): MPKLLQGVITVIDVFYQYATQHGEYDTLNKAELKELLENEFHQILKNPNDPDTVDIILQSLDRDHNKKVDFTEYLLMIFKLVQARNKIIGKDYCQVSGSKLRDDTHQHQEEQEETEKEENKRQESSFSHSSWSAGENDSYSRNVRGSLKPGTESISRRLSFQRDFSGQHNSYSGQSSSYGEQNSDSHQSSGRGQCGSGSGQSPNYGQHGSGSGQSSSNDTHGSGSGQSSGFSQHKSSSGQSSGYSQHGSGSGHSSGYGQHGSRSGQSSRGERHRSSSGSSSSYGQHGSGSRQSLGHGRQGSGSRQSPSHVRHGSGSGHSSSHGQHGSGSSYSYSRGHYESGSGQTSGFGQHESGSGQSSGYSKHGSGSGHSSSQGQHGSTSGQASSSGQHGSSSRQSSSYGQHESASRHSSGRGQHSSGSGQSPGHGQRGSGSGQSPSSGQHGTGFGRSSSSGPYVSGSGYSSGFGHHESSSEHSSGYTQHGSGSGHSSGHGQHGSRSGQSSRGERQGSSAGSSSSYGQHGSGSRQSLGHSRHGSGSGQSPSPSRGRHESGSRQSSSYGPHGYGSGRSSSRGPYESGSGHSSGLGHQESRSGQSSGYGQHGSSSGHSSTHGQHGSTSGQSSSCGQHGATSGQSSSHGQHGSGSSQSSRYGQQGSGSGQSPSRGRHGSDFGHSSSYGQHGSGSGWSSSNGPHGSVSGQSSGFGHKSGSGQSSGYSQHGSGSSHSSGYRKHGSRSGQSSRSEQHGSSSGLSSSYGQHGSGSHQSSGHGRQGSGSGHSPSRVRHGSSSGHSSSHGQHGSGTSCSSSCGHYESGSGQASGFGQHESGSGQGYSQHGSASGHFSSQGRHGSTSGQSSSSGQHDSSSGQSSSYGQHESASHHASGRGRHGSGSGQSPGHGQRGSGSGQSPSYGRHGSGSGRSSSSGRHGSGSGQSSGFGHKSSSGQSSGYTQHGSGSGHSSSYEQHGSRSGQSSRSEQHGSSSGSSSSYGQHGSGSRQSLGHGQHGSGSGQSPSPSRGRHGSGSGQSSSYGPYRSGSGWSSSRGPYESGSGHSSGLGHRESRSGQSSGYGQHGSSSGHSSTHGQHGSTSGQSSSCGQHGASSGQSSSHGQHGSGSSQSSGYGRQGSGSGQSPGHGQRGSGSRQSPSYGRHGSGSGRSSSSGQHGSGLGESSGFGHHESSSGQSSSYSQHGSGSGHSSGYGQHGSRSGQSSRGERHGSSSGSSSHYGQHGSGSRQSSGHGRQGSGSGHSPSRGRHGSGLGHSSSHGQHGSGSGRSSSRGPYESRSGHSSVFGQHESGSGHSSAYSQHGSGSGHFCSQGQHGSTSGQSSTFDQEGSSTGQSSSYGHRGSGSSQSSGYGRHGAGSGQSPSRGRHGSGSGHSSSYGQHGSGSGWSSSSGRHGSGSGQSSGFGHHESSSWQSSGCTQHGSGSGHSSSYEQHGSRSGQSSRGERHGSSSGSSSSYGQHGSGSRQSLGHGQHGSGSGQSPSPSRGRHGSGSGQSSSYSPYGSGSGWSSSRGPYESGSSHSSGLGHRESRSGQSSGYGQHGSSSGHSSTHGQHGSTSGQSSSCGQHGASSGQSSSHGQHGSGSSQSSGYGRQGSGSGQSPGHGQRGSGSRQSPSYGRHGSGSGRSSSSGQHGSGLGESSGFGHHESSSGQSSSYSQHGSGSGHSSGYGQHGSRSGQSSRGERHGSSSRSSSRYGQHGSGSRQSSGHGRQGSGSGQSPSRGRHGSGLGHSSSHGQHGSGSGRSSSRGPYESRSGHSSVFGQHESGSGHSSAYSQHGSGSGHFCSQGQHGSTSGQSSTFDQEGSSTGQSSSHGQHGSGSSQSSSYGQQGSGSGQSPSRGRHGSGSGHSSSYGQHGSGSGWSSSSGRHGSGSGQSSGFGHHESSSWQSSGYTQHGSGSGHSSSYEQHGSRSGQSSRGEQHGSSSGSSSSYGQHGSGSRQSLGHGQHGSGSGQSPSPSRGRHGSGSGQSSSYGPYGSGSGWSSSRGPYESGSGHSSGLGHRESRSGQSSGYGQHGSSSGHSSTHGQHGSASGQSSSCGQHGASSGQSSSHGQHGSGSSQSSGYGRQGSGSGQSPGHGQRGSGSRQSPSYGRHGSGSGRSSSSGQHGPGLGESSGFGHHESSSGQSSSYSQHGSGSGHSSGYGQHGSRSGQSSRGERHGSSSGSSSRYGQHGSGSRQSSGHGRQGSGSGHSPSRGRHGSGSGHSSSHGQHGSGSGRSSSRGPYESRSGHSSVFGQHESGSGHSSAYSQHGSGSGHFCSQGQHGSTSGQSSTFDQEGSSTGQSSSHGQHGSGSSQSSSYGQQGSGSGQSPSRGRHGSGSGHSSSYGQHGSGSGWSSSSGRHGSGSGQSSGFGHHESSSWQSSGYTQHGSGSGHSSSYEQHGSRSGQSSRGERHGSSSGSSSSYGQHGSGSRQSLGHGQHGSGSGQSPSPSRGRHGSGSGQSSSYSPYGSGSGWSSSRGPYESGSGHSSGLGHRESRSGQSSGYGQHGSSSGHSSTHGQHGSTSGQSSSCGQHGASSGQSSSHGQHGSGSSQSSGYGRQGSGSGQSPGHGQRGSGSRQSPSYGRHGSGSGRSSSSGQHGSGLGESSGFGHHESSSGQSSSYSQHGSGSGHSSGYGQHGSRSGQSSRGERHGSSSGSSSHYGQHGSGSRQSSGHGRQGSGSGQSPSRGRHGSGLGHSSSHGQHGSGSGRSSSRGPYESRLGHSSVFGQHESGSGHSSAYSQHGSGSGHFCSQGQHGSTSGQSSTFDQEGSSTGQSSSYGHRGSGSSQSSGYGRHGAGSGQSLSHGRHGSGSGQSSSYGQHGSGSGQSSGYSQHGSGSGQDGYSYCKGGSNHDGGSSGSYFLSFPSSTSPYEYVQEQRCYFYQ
T4 sequence (P11142 2-646 limits assumed): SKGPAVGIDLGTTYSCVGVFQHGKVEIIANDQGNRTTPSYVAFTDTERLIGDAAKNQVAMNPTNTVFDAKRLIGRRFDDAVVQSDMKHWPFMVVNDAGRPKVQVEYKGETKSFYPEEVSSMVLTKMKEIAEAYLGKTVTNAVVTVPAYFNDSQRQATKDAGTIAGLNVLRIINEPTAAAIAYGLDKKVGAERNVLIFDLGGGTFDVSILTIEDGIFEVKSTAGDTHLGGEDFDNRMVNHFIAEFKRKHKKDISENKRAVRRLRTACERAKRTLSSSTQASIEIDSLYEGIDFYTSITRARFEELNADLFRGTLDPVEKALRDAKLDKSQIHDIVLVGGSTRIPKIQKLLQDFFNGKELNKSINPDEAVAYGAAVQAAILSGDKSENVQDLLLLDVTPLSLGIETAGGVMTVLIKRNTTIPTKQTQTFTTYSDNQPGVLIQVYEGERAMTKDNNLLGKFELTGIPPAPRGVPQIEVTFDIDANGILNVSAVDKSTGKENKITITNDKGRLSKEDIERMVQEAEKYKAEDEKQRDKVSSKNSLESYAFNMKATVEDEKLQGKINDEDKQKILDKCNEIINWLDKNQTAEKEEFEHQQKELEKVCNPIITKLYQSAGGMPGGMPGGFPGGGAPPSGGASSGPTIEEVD
T1 sequence (P08238 2-724 limits assumed): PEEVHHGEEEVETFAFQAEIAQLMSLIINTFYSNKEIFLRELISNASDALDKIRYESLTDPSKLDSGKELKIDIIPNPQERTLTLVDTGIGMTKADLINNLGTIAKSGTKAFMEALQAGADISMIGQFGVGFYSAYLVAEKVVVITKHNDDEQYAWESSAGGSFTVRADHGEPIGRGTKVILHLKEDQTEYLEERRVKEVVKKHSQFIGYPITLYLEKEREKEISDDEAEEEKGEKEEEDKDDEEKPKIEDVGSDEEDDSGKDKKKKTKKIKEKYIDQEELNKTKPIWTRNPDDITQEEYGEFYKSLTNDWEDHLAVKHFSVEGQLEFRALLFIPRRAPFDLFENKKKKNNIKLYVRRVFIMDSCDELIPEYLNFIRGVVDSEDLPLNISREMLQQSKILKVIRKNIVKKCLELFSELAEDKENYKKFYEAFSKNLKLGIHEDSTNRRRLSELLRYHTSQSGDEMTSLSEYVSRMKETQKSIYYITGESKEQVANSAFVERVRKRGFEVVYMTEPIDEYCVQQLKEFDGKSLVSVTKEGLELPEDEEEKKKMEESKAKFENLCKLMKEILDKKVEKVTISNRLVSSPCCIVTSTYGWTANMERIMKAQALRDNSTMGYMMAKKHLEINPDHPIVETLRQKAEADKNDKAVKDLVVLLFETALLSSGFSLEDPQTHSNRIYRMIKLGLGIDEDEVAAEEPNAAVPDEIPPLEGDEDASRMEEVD

B1: Fc-LPD (lysyl oxidase prodomain fused to Fc antibody fragment) (Fc fusion)
chain: [human IgG1 Fc and a few adjoining residues cut from this listing]ASGAGSTTENLYFQGGSAPPAAGQQQPPREPPAAPGAWRQQIQWENNGQVFSLLSLGSQYQPQRRRDPGAAVPGAANASAQQPRTPILLIRDNRTAAARTRTAGSSGVTAGRPRPTARHWFQAGYSTSRAREAGASRAENQTAPGEVPALSNLRPPSRVDGMVGD
modifications: N-glycans detected by MS at N346, N362 and N409 (N81, N97, N144 of LOX) and at one further site in the Fc region
notes: Expressed in HEK293-6E cells from pYD5 and purified on protein A; expressed as a dimer of about 95 kDa; The preparation is a mixture of glycoforms (45 kDa and 60 kDa bands); also called anti-LOX
- Ratio Fc-LPD:Fc [1]: 1.2
- Ratio Fc-LPD:Fc [2]: 14.1
- Ratio Fc-LPD:Fc [3]: 1.8
- Ratio Fc-LPD:Fc [4]: 1.2
- Ratio Fc-LPD:Fc [5]: 0.7
- Ratio Fc-LPD:Fc (Hornerin [6]): 1.3
- Ratio Fc-LPD:Fc (Filaggrin-2 [7]): 1
- Ratio Fc-LPD:Fc-LPDN346, 409, 456Q [8]: 0.6
- Ratio Fc-LPD:Fc-LPDN346, 409, 456Q [9]: 0.4
- Ratio Fc-LPD:Fc-LPDN346, 409, 456Q [10]: 1.4
- Ratio Fc-LPD:Fc-LPDN346, 409, 456Q [11]: 2.9
- Ratio Fc-LPD:Fc-LPDN346, 409, 456Q (Hornerin [12]): 6.7
- Ratio Fc-LPD:Fc-LPDN346, 409, 456Q (Filaggrin-2 [13]): 55.7
- Kd [14]: 32.4 nM
